Source: paper PMC12136788
The list shows a part of the results.

T1: UNK ZnF1-3 (human, UniProt Q9C0B0 31-174)
T1 sequence: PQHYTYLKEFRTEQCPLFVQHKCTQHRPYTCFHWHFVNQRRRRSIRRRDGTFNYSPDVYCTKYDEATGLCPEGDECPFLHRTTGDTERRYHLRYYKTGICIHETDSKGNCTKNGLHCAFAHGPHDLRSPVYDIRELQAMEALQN

B1: chr7:151048522:151048523:+_ENSG00000013374_ENST00000566856|hu_mus|hu_hu_hu_mus_True|58_98 (ssRNA)
RNA: GGGAGUUCUACAGUCCGACGAUCCUGUUUCUUAUUUAUGACAAUUUUGAUGUAAUUUUCUUGAAAUCCGAAAGUUUCAGCUAUUUUACACCUCAGGUCUCUACCAGUGACAUGCAAGCGGGUCUCCAACAAGCUUUUCUUAUCCAACAGAGGAUUGAGCAUCA
B2: chr1:231700301:231700302:+_ENSG00000116918_ENST00000366639|hu_hu|FALSE|FALSE (ssRNA)
RNA: GGGAGUUCUACAGUCCGACGAUCGUCAGCCACUCCCAGAAGGUAAUCGACAGGUGUGACUCUCAGUCUCCAAGUACCAAACUGCUUAUCCUGUGCAUCAGAGGAGGGAGUUUUAUUUUCUUUCCCAUUGUCUUCAGUCGUAAACAACAGAGGAUUGAGCAUCA
B3: chr18:56819859:56819860:+_ENSG00000166562_ENST00000588875|hu_mus|hu_hu_hu_mus_True|78_88 (ssRNA)
RNA: GGGAGUUCUACAGUCCGACGAUCAACCUUGAUUACUCUGUGAACUAUUGGAAUGUCUCGUCCUUCAACCUUAAAAACAACUAUUUCACCAGCUCUGAUGGGGUCCUCCCGGAAAUUCGUGAGGAACAGCAGAUCUCCUCUGUGCAACAGAGGAUUGAGCAUCA
B4: chr11:51804979:51804980:-_ENSMUSG00000020390_ENSMUST00000020657|mus_hu|FALSE|FALSE (ssRNA)
RNA: GGGAGUUCUACAGUCCGACGAUCGAUAAAAACCUAACAGUUGGUGGUUUAUUUGGAUAUUCUUCAGAAAAUUCUAUUACUAGUUUAAAAGUACCAUCUUCAAAAGGUGUCCCUUCUGGUCCAAAUAUAACUGCAUUCCACUGCCAACAGAGGAUUGAGCAUCA
B5: chr9:107926503:107926504:+_ENSMUSG00000032594_ENSMUST00000035214|mus_hu|FALSE|FALSE (ssRNA)
RNA: GGGAGUUCUACAGUCCGACGAUCGGGGGCCAGUUGCACACUGAGGGCAGAGGAUGCAGCACAUGGGCCACAAAAGGAGAGCUACAUAGAAGGUCCUGGCCAGGUGAAAGCCAAUGGUCAGAUUCUAUUCAGCUUAUUAUUCUGCAACAGAGGAUUGAGCAUCA
B6: 77531739_77531859_264_3pUTR_ENSG00000048649_ENST00000308488|human|control|control (ssRNA)
RNA: GGGAGUUCUACAGUCCGACGAUCCGCUGCCGCCGCCGUCGCCAUUUUGAACUGGAGGAUGGAGGAGGAGGCGAUGGGGGGGCGGGGGAAGUUGUGGUGCCGAGGGAUGGCAAGGCAACCUUACAGACGACAGGAGGCGCUCUCCAACAGAGGAUUGAGCAUCA

Target: T1, UNK ZnF1-3
Assay: nsRBNS (natural sequence RNA bind-n-seq); RBNS binding buffer (assumed for nsRBNS): 25 mM Tris pH 7.5, 150 mM KCl, 3 mM MgCl2, 0.01% Triton X-100, 500 ug/ml BSA, 20 U/ml SUPERase-In, 4 C; UNK is unkempt and MSI1 is Musashi-1; names of the RNAs are library labels; protein concentration not given here; high values mean tight binding

| Binder | binding signal |
| --- | --- |
| B1 | 0.751 enrichment R |
| B2 | 1.51 enrichment R |
| B3 | 0.768 enrichment R |
| B4 | 0.947 enrichment R |
| B5 | 1.75 enrichment R |
| B6 | 1.5 enrichment R |
